# In PubChem BioAssay:
# The inconclusive results got no clear call from the source; some entries with a clear call stand among them for comparison. The source made the active and inactive calls.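 Rule for the calls: active = thallium flux rate significantly above the same plate's solvent-only control wells, beyond their mean plus 3 SD; inconclusive = the two replicate wells gave conflicting results; inactive = the rest.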
# Test: compound effects on native HEK Tl+ uptake – HEK cells, counterscreen 1, counter-screen for KCC2 modulator project, confirmation (AID 1716)
# Conditions: HEK293 parental cells, thallium flux FluoZin2, ouabain; at 10 µM; baseline-ratio fluorescence slope, 10–20 s after thallium
row,Structure (SMILES),thallium flux rate (normalised fluorescence)
1,CCCCC(CCC(=O)O)(C(=O)OCC)c1csc(Nc2ccc(C)cc2)n1 (centres undefined),active: 0.0056
2,CCn1c(SCC(N)=O)nnc1-c1ccc(S(=O)(=O)N2CCN(C)CC2)cc1,inconclusive: 0.00867
3,COc1ccc(C/C(C)=N/NC(=S)Nc2ccccc2F)cc1,inconclusive: 0.0341
4,S=c1nc(C2CC2)n(-c2ccccc2)[nH]1,active: 0.01
5,Cc1ccc(NC(=S)NNc2ccc([N+](=O)[O-])cc2S(=O)(=O)Nc2ccccc2C(=O)O)cc1C,inconclusive: 0.00669
6,O=C(CNS(=O)(=O)c1c(Cl)cccc1Cl)OCc1csc(-c2ccccc2)n1,inconclusive: 0.00639
7,CCOc1ccccc1NC(=S)N(CCCN1CCOCC1)Cc1cn(C)c2ccccc12,inconclusive: 0.00639
8,CCOc1cc(/C=N/NC(=O)CN(CCc2ccccc2)S(=O)(=O)c2ccc(NC(C)=O)cc2)ccc1O,inactive: 0.00421
9,O=C(c1cc(COc2ccc(F)cc2Cl)on1)N1CCCC(OCc2cccnc2)C1 (centres undefined),inactive: 0.00707
10,O=C(N/N=C\c1cn(-c2ccccc2)nc1-c1ccccc1)c1ccc(Br)o1,active: 0.0132
11,CC(=O)SCC(=O)N=c1sc2cc(F)ccc2n1C,inconclusive: 0.00869
12,COc1cc(-c2nc(CN3CCN(c4ncccn4)CC3)c(C)o2)ccc1F,inconclusive: 0.00675
13,COc1cc(C(=O)NC(=S)NNC(=O)c2ccc3c(c2)OCO3)cc(OC)c1OC,inconclusive: 0.00535
14,CCn1c(SCC(=O)N(Cc2ccccc2)C2CCS(=O)(=O)C2)nc2ccccc2c1=O (centres undefined),active: 0.0112
